This is an account of results in PubChem BioAssay AID463173 (ICCB-Longwood Screening Facility, Harvard Medical School, 2010).

Screen size: about 52,000 compounds; about 4,300 (8.3%) were called active. Cut-off read from the data, not from the text of the source: active = survival mostly below about 52% (no sharp cut-off); inactive = mostly above about 56%. The list shows a part of the results.

The experiment has as its system DeltatarO mutant. Put plainly: S. aureus survival, RN4220 and DeltatarO strains – OD600, teichoic acid synthesis inhibitors, primary screen (AID 463173). The settings on record: S. aureus RN4220 wild type/DeltatarO growth, OD600, 18 h, active compounds read low, screened at 18.75 µg/mL (by protocol).
Turning to `O=C(Cn1c(C(=O)N(Cc2ccco2)CC2CCCO2)cc2sccc21)c1ccccc1` (stereo not drawn), the survival is active: 68%.

For the compound `CSc1nc(=O)c2c(n1C)NC(=O)CC2c1cc(F)cc(F)c1` (stereo not drawn), the survival is inactive: 44%.

Turning to `c1coc(C2Nc3cccc4cccc(c34)N2)c1`, the survival is inactive: 74%.

As to `Cc1ccc2nc(Cl)c3cc(C(=O)NCCCN(C)Cc4ccccc4)sc3c2c1`, the survival was active: -9%.

In the case of `Cc1ccc(NC(=O)c2c(NC(=O)c3ccccc3Cl)sc3c2CCC3)cc1`, the survival is inactive: 160%.

Take `COc1ccc(Nc2cc(C(=O)NC3CCCC3)c3ccccc3n2)cc1`: the survival was inactive: 90%.

As for `COc1ccc(C2C=C(c3ccc(Br)cc3)Nc3nnnn32)c(OC)c1` (stereo not drawn), the survival was inactive: 84%.

With `COc1ccccc1CNc1nc2c(S(=O)(=O)c3ccccc3)nnn2c2ccc(Cl)cc12`, the survival is inactive: 64%.

For the compound `O=C(CCSCc1ccc(Cl)cc1)NCc1ccc(F)cc1Cl`, the survival is inactive: 88%.

For `CS(=O)(=O)N1CCc2cc(C(=O)N3CCN(c4ccccc4F)CC3)ccc21`, the survival is inactive: 45%.

`O=C(CSc1nccn1Cc1ccc(F)cc1)NCc1ccc(F)cc1`: the survival is inactive: 71%.

In the case of `COC(=O)/C=c1\sc2nc(N)nn2c1=O`, the survival was inactive: 90%.

Turning to `Cc1cc(C)c(NC(=O)c2c(C)nn(-c3ccc(F)cc3)c2-n2cccc2)c(C)c1`, the survival was inactive: 76%.

In the case of `CN1CCN(C(=O)Cn2ncc3c4ccccc4n(Cc4ccc(Cl)cc4)c3c2=O)CC1`, the survival was inactive: 61%.

With `Cc1ccccc1NC(=O)Cn1nnc(C(=O)NCCc2ccccc2)c1N`, the survival was inactive: 80%.

On to `CCc1nn2c(=O)c(S(=O)(=O)Nc3ccc(Br)cc3F)c(C)nc2s1`, for which the survival was inactive: 57%.

As to `O=C(NC1CCCCC1)c1ccc(CSc2nc3ccncc3n2Cc2ccc(F)cc2)cc1`, the survival was inactive: 61%.

As for `CN(C)c1ccc(Nc2nc3ccccc3n3nnnc23)cc1`, the survival is inactive: 88%.

In the case of `COc1ccccc1-c1nn2c(=O)cc(CN3CCN(C(=O)/C=C/c4ccccc4)CC3)nc2s1`, the survival was inactive: 71%.

For `COc1cccc(CNC(=O)CN2C(=O)N(c3cccc(Cl)c3)S(=O)(=O)c3ccccc32)c1OC`, the survival is inactive: 72%.

Take `COc1ccc(N2CCN(S(=O)(=O)c3ccc(-c4cnc(C5CC5)o4)cc3)CC2)cc1`: the survival is inactive: 78%.

For `CC1=C(C(=O)Nc2ccc(C)cc2C)C(c2ccc(Br)cc2)n2ncc(C(=O)Nc3cccc(C)c3)c2N1` (stereo not drawn), the survival is inactive: 128%.

For the compound `COc1ccccc1CNC(=O)CSc1nc(=O)[nH]c2c1CCC2`, the survival was inactive: 78%.

As to `Cc1ccc(C)c(N(C)C(=O)Cc2c(C(=O)O)[nH]c3ccc(Cl)cc23)c1`, the survival is active: 40%.

Regarding `CC(C)(C)CC(C)(C)c1ccc(OCC(=O)Nc2ccc(S(=O)(=O)Nc3ncccn3)cc2)cc1`, the survival is inactive: 62%.

As to `CC(=O)Nc1ccc(Oc2nc(C)cc(C)n2)cc1`, the survival was inactive: 89%.

For `COc1ccc(C2C(C(=O)Nc3ccc(C)cc3C)=C(C)Nc3nc(SCc4cccc(C)c4)nn32)c(OC)c1` (stereo not drawn), the survival is inactive: 164%.

For the compound `OC(CN1CCNCC1)Cn1c2ccccc2c2ccccc21` (stereo not drawn), the survival was inactive: 84%.

With `Cc1ccccc1Cn1c(=O)n(CC2CCC(C(=O)N3CCOCC3)CC2)c(=O)c2sccc21` (stereo not drawn), the survival was inactive: 82%.

As to `Cc1c(Cl)cccc1Nc1nn2c(=O)c3ccc(C(=O)NCCC4=CCCCC4)cc3nc2s1`, the survival was inactive: 80%.

For `Cc1cc(C)c(S(=O)(=O)N2CCN(Cc3ccc4c(c3)OCO4)CC2)cc1C`, the survival was active: 13%.

Turning to `CCN(CC)S(=O)(=O)c1cccc(C(=O)Oc2cccnc2)c1`, the survival was inactive: 63%.

In the case of `COc1ccc(S(=O)(=O)c2nnn(-c3ccc(C(C)C)cc3)c2C)cc1`, the survival is inactive: 74%.

Regarding `Cc1[nH]c2ccc(-c3nnc(SCC(=O)N4c5ccccc5CCc5ccccc54)o3)cc2c1C`, the survival was inactive: 89%.

As for `CCOc1ccc(NC(=O)Cn2c(=O)n(CCCCC(=O)NCc3ccc4c(c3)OCO4)c(=O)c3ccccc32)cc1`, the survival was inactive: 85%.

`CCN(CC)c1ccc(-n2nc3cc(C)c(NC(=O)c4ccccc4C)cc3n2)c(C)c1`: the survival was inactive: 73%.

On to `CCc1ccc(S(=O)(=O)NCc2nc3cccnc3n2Cc2cccc(OC)c2)cc1`, for which the survival was inactive: 88%.

For `CCCCCn1c(CNC(=O)c2ccccc2)nc2ccccc21`, the survival was inactive: 67%.

As for `O=C(CN1C(=O)CSc2ccc(S(=O)(=O)N3CCOCC3)cc21)NCCCN1CCCCC1`, the survival is inactive: 94%.

For the compound `Cc1ccc(N(CC(=O)N2CCN(c3ccccc3)CC2)S(=O)(=O)c2c(C)noc2C)cc1`, the survival is inactive: 70%.

Take `Cc1nc(-c2ccc(F)cc2)sc1CCNC(=O)c1cccs1`: the survival is inactive: 129%.

`CCc1ccc(NC(=O)Cn2c(=O)n(-c3ccccc3C)c(=O)c3c2c2cc(OC)ccc2n3C)cc1`: the survival was inactive: 67%.

With `COc1ccc(NC(=O)CSc2nc3ccccc3nc2N2CCCCC2)cc1`, the survival was active: 18%.

Take `CN1CCN(c2nc3c(S(=O)(=O)c4ccc(Cl)cc4)nnn3c3ccsc23)CC1`: the survival was inactive: 39%.

In the case of `CC(=O)Nc1ccc(C)cc1-c1nc2ccccc2n(CC(=O)c2ccc(C)c(C)c2)c1=O`, the survival was inactive: 68%.

`O=C(NCCc1csc(-c2ccc(C(F)(F)F)cc2)n1)C(=O)Nc1ccc(F)c(Cl)c1`: the survival was inactive: 103%.

For `CCOc1ccccc1NS(=O)(=O)c1ccc(N2CCCCS2(=O)=O)cc1`, the survival was inactive: 97%.

For `CCOC(=O)c1c(N)n(-c2ccc(CC)cc2)c2nc3ccccc3nc12`, the survival was inactive: 98%.

Take `O=C(CCSCCc1ccccn1)Nc1ccc(Cl)cc1`: the survival was active: 47%.

As for `O=C(Nc1ccc(Br)cc1)c1cc(S(=O)(=O)NC2CCCC2)ccc1F`, the survival is inactive: 81%.

As for `CCN(c1ccccc1)S(=O)(=O)c1nnc(NC(=O)C2CCCCC2)s1`, the survival was active: 48%.

Consider `COc1ccc2c(c1)c(N1CCCC1=O)c(C(=O)Nc1cc(C)c(Cl)cc1OC)n2C`, for which the survival is inactive: 87%.

On to `CCn1c(=O)c2sccc2n2c(CCC(=O)Nc3ccc(F)cc3)nnc12`, for which the survival is inactive: 82%.

`CCc1ccc2[nH]c(=O)c(CN(Cc3ccco3)C(=S)NCC(C)C)cc2c1`: the survival is inactive: 56%.

As for `Cc1ccc2c(c1)cc1c(=O)n(Cc3ccccc3Cl)nc(C)n12`, the survival is inactive: 96%.

Take `O=C(COCC(=O)N1CCCC1)N1CCCC1`: the survival is inactive: 75%.

For `CCOC(=O)c1ccccc1NC(=O)N1CCC(CN2CCOCC2)CC1`, the survival was inactive: 62%.

As to `CCOc1ccc(NC(=O)Cn2nc3c(cc2=O)CC(C)CC3)cc1` (stereo not drawn), the survival was inactive: 98%.

As to `CCOC(=O)c1[nH]c2c(c1Cc1ccccc1)C(=O)CC(c1ccccc1)C2` (stereo not drawn), the survival was inactive: 64%.

For the compound `CCN1CCN(C(c2ccccc2Cl)c2sc3nc(-c4ccco4)nn3c2O)CC1` (stereo not drawn), the survival was inactive: 92%.

Turning to `Cc1ccc(-c2noc(-c3nnn(CC(=O)Nc4ccc(C)c(Cl)c4)c3N)n2)cc1`, the survival is inactive: 89%.

In the case of `CC(C)Oc1ccc(C(=O)NCC(c2ccc(N(C)C)cc2)N2CCc3ccccc32)cc1` (stereo not drawn), the survival is inactive: 91%.

Turning to `CCNC(=O)CC1C(=O)N(c2ccc(C)cc2)C(=O)N1CCOC` (stereo not drawn), the survival is inactive: 81%.

As to `COC(=O)C1=NN(C(=O)c2cccc(OC)c2)C(C)(O)C1` (stereo not drawn), the survival was inactive: 104%.

`O=C(CSc1nnc(-c2ccccc2)o1)c1ccc2c(c1)OCCO2`: the survival is inactive: 83%.

On to `COc1ccc(CNC(=O)CN2C(=O)CCn3nc(-c4cn(C)c5ccccc45)cc32)cc1`, for which the survival was inactive: 96%.

On to `COc1ccc(-c2onc(C)c2C)cc1S(=O)(=O)NCCc1ccccc1`, for which the survival is inactive: 90%.

`Oc1c(C(c2ccccc2)N2CCCC2)sc2nc(-c3ccco3)nn12` (stereo not drawn): the survival is active: 0%.

Turning to `CCOC(=O)Cc1ccc(NC(=O)NC(C)c2c(-n3cccc3)sc(C)c2C)cc1` (stereo not drawn), the survival was inactive: 61%.

Consider `COc1cc(-n2c(=O)c3ccccc3n(Cc3cccc(Cl)c3)c2=O)cc(OC)c1OC`, for which the survival is inactive: 87%.

Take `CCOC(=O)c1c(C)[nH]c(CCC(=O)NCc2cc(OC)c(OC)c(OC)c2)c1C`: the survival is inactive: 88%.

With `COc1ccc(CCN2C(=O)N(c3cccc(OC)c3)C(=O)C2CC(=O)Nc2ccccc2)cc1` (stereo not drawn), the survival was inactive: 101%.

Consider `Cc1cc2oc(=O)c(CC(=O)O)c(C)c2c2occ(-c3ccccc3)c12`, for which the survival was inactive: 53%.

As to `Cc1ccc(C)c(Cn2c(=O)n(-c3ccccc3)c(=O)c3c4c(sc32)CCCC4)c1`, the survival was inactive: 120%.

Turning to `CCN(CC)C(=S)NC(=O)C12CC3CC(CC(C3)C1)C2`, the survival was inactive: 87%.

Consider `CCC(=O)N1c2ncnn2C2(CCCCC2)[C@@H]2CCCC[C@@H]21`, for which the survival is inactive: 111%.

For the compound `CCn1nc(C)c2c(-c3ccccc3)cc(=O)n(C(C)C(=O)NCCc3ccc(Cl)cc3)c21` (stereo not drawn), the survival is inactive: 87%.

With `O=S(=O)(c1ccc(-c2cnc(C3CC3)o2)cc1)N1CCN(c2ccc(F)cc2)CC1`, the survival was inactive: 86%.

For `CCOc1ccc(NC(=O)CCCn2c(C)c3cnn(-c4ccccc4)c(=O)c3c2C)cc1`, the survival was inactive: 98%.

In the case of `O=C(NC(NC1CCS(=O)(=O)C1)C(=O)c1ccc(Cl)cc1)c1ccco1` (stereo not drawn), the survival was inactive: 84%.

In the case of `CCOc1cccc(CNCCCSc2nnnn2C)c1`, the survival is inactive: 62%.

Regarding `COc1ccc(OC)c(NC(=O)CSC2=Nc3ccccc3C3=NC(CC(=O)NCCc4ccccc4)C(=O)N23)c1` (stereo not drawn), the survival is inactive: 77%.

Consider `O=C(c1ccc2c(c1)N(Cc1cccc(Cl)c1)C(=O)c1ccccc1S2=O)N1CCC(Cc2ccccc2)CC1` (stereo not drawn), for which the survival is inactive: 124%.

With `O=C(c1cccc([N+](=O)[O-])c1)N1CCN(c2ccc(Nc3ccccc3)nn2)CC1`, the survival is inactive: 88%.

Take `COc1nnc(-c2ccc(N3CCCCC3)c(NC(=O)c3ccc(C)cc3)c2)c2ccccc12`: the survival was active: 26%.

Consider `CCOC(=O)c1c(S(=O)(=O)N2CCC(C(=O)Nc3ccc(C)c(Cl)c3)CC2)c(C)n(C)c1C`, for which the survival is inactive: 83%.

As to `COc1ccccc1N1CCN(C(=O)C2CCN(S(=O)(=O)c3cn(C)cn3)CC2)CC1`, the survival was active: 46%.

In the case of `COc1cccc(-c2cn3c(n2)sc2cc(C(=O)NC4CCCCC4)ccc23)c1`, the survival is inactive: 68%.
